Assay results: PubChem BioAssay (NCI)
Several values for one entry are separate records, joined by “and”; a condition that tells them apart may be missing. Equal entries are not always repeated.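 How tested: cells in 96-well plates exposed to compound for 48 hours at five concentrations. At the GI50, growth is halved. At the TGI there is no net growth.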

System: NCI-H322M lung
Assay: DTP human tumour cell line panel, 48 h

| SMILES | TGI | GI50 [µM] |
| --- | --- | --- |
| CC(C)(C)c1cc(OCc2n[nH]c(=S)n2N)c(Cl)cc1OCc1n[nH]c(=S)n1N | > 100 µM |  |
| CCc1c2c(nc3ccc(OC(=O)OCc4ccc(B5OC(C)(C)C(C)(C)O5)cc4)cc13)-c1cc3c(c(=O)n1C2)COC(=O)[C@]3(O)CC | 5.14 µM | 0.0506 |
| Nc1nc(N)c2c(-c3ccccc3)ccnc2n1 | > 100 µM |  |
| COc1ccc(-c2nsc3c2NC(=O)CC3c2cccc(F)c2)cc1 (configuration not stated) | > 100 µM | 6.42 |
| COc1cc2c(cc1OC)-c1c(c3ccc([N+](=O)[O-])cc3c(=O)n1CCCN=[N+]=[N-])C2=O | > 100 µM | > 100 |
| COc1cc(Cn2c3ccccc3c3cc(C)cc(OC)c32)cc2c1[nH]c1ccccc12 | > 25 µM |  |
| COC(=O)CCc1cc(OC)c2oc(-c3ccc(OC)c(OC)c3)c(CO)c2c1 | > 100 µM |  |
| O=C(O)C1Cc2[nH]c3ccccc3c2C2CCCC12 (configuration not stated) | > 100 µM |  |
| O=C(CCN1CCCC1)Nc1ccc2c(Nc3ccc(Br)cc3)c3ccccc3nc2c1 | 2.95 µM | 1.6 |
| COc1ccc(-c2ccc(-c3ccc(C(=N)N)cc3)s2)cc1Cl | 2.8 µM | 1.48 |
| CN(CCCNC(=O)c1cn(C)c2c1ccc1ccccc12)CCCNC(=O)c1cn(C)c2c1ccc1ccccc12 | 12.2 µM |  |
| COc1ccc(C(SCCO)(c2ccc(OC)cc2)c2ccc(OC)cc2)cc1 | > 100 µM |  |
| CCCCCCCCCCCCCC(=O)NO | 61.8 µM |  |
| CC(c1ccccc1)n1c2ccccc2c2c(N)ncnc21 (configuration not stated) | 33 µM |  |
| CCOC1Oc2ccccc2C(=O)/C1=C\Nc1ccc(C(=O)O)c(O)c1 (configuration not stated) | > 100 µM | > 100 |
| O=C1C(c2ccccc2)=[N+]([O-])c2cc([N+](=O)[O-])ccc21 | > 100 µM |  |
| O=c1[nH]nc(-c2ccccc2)n1-n1cccc1 | > 100 µM |  |
| N#Cc1c2c(c(Nc3cccc(C(F)(F)F)c3)n3c1nc1ccccc13)CCCC2 | 50.1 µM |  |
| CN(C)c1ccc2cc3c(cc2c1)Oc1ccccc1N3.[Cl][Zn][Cl] | 27.2 µM | 13.7 |
| CC(=O)C(C(=O)C(=O)Nc1cc(Cl)c(Cl)cc1Cl)c1csc(N)n1 (configuration not stated) | > 100 µM |  |
| COC(=O)/C(=N\Nc1nc(=S)[nH]n1N)C(C#N)c1ccc(Cl)cc1 (configuration not stated) | > 100 µM |  |
| CCN(CC)CCCNc1nccc2c(C)c3[nH]c4ccncc4c(=O)c3cc12 | 6.07 µM |  |
| COc1ccc2c(c1)C(=O)/C(=C/c1cccc(OCC(=O)c3ccc([N+](=O)[O-])cc3)c1)CO2 | 30 µM | 15.7 |
| COc1cc(C(=O)c2cnc(-c3ccc4cc[nH]c4c3)[nH]2)cc(OC)c1OC | 15.4 µM | 0.0687 |
| Cn1cc(-c2csc(-c3cn(CCCN4CCCCC4)c4ccc(Br)cc34)n2)c2cccnc21 | 3.11 µM | 1.63 |

| SMILES | TGI | GI50 [µM] |
| --- | --- | --- |
| Cc1ccc2nc(-c3nccn3C)cc(C(=O)NC(C)CN(C)C)c2c1 (configuration not stated) | > 100 µM |  |
| O=C(N/N=C/c1cc(Cl)cc(Cl)c1[OH2+])c1ccncc1.O=S(=O)([O-])[O-].[Fe+2] | 38.2 µM |  |
| O=C(N/N=C/c1cc(Cl)cc(Cl)c1[O-])c1ccccc1O.O=C(N/N=C/c1cc(Cl)cc(Cl)c1[O-])c1ccccc1O.[Cu+2] | 1.74 µM | 0.516 |
| CN1CCN(C(=O)[C@@]2(C)CC[C@]3(C)CC[C@]4(C)C(=CC[C@@H]5[C@@]6(C)CC[C@H](OC(=O)c7cccnc7)C(C)(C)[C@@H]6CC[C@]54C)[C@@H]3C2)CC1 | 5.16 µM | 2.21 |
| CC(/C=C1\CCC(CN(C)C)C1=O)c1cccc(Br)c1 (configuration not stated) | 38.5 µM |  |
| COc1ccc(Cl)cc1Nc1nc(C(F)(F)F)ccc1C(=O)N/N=C/c1ccccc1Cl | 4.31 µM | 0.475 |
| O=C1CS(=O)c2ccccc2N1 (configuration not stated) | > 100 µM |  |
| Clc1ccc2c(c1)CC1C[N+]3=C(CCCCC3)C1=C2 (configuration not stated) | > 100 µM |  |
| CCOC(=O)c1cc(C2CCN(Cc3ccccc3)C2=O)c(C(=O)/C=C(/C)N)[nH]1 (configuration not stated) | > 100 µM |  |
| O=c1oc2ccc(I)cc2c(=O)n1-c1ccc(I)cc1F | 24.1 µM | 0.365 |
| O=C(Nc1ccccc1)c1cc2cc(CCl)ccc2oc1=O | > 100 µM |  |
| COc1ccc(C(=O)Nc2ccn(CCOC(=O)c3ccc(OC)cc3)c(=O)n2)cc1 | > 100 µM |  |
| CC(C)(CN1CCCCC1)C(=O)CC(SCCS(=O)(=O)O)c1ccccc1 (configuration not stated) | 40.5 µM |  |
| Cn1c2ccccc2c(=NNc2ccc(S(=O)(=O)N=C(N)N)cc2)c2ccccc21 | 19.1 µM |  |
| O=C(N/N=C/c1cc(Cl)cc(Cl)c1[O-])c1ccccc1O.O=C(N/N=C/c1cc(Cl)cc(Cl)c1[O-])c1ccccc1O.[Fe+2] | 29.4 µM | 13.5 |
| CC(=O)Oc1ccc(C)c2c1[C@H]1CC[C@]3(C)[C@@H](OC(C)=O)CC[C@H]3[C@@H]1CC2 | 33.9 µM |  |
| COc1cc(C2SCC(=O)N2c2ccc(Cl)cc2)cc(OC)c1OC (configuration not stated) | > 100 µM |  |
| COc1ccc2[nH]cc(Cc3c[nH]c4ccc(OC)cc34)c2c1 | 42.8 µM | 17.8 |
| CC(=O)c1ccc(Nc2nc3ccccc3c3occc23)cc1 | 99.8 µM |  |
| O=C(CO)CC(=O)C(=O)Nc1cccc(C(F)(F)F)c1 | > 100 µM |  |
| S=C1C(CCCOCc2ccccc2)C2CCCC23CC2(CCN13)OCCS2 (configuration not stated) | > 10 µM |  |
| CC(=O)OC1CC2C(=O)CC1(C)C2(C)C (configuration not stated) | > 100 µM |  |
| O=S1(=O)OCCOS(=O)(=O)C1(Br)Br | > 100 µM |  |
| O=C1c2c(c3c4ccccc4n(CCCCCCN4CCOCC4)c3c3[nH]c4ccccc4c23)C(=O)N1O | > 100 µM | 25.9 |
| CCC1=CCC(P(=O)(c2ccccc2)c2ccccc2)CC1C (configuration not stated) | > 100 µM |  |

| SMILES | TGI | GI50 [µM] |
| --- | --- | --- |
| C/C1=C\CC[C@@]2(C)O[C@@H]2C[C@@H]2[C@H](C/C(C)=C/CC1)OC(=O)[C@]21CO1 | > 100 µM |  |
| N#C/C(=C\c1ccccc1F)C(=O)c1ccccc1 | > 100 µM |  |
| [O-][N+]1=C(c2ccccc2)/C(=C2/C(c3ccccc3)=[N+]([O-])c3ccccc32)Cc2ccccc21 | 39.8 µM |  |
| Cc1c(C(=O)/C=C/c2ccc(Cl)cc2)nnn1-c1ccnc2c(C(F)(F)F)cccc12 | > 100 µM | 37.4 |
| Cc1cc(=O)n2c(cc3cccccc32)n1 | > 100 µM |  |
| CCCCCCc1cc2cc(-c3cn4ccccc4n3)c(=O)oc2cc1O | > 100 µM |  |
| O=C(CC1(O)C(=O)Nc2c(Cl)cc(Cl)cc21)c1ccc([N+](=O)[O-])cc1 (configuration not stated) | > 100 µM |  |
| CCCCCC1CC=CC(NC(=O)OCc2ccccc2)C1/C=C/CCCC1OCCO1 (configuration not stated) | > 100 µM |  |
| CC(C)NC(=O)OCc1c(COC(=O)NC(C)C)c(-c2cc[n+](COC(=O)Cc3ccccc3)cc2)n2c1CCC2 | > 100 µM |  |
| CCCCCCC(O)C(=O)OC1C2C(CC1(C)C)C(O)C13OC1C(O)C1(CO1)[C@@]23C (some centres not stated) | > 100 µM |  |
| O=C1Nc2n[nH]c(=S)n2NC12c1ccccc1-c1ccccc12 | 29.2 µM |  |
| CC(=O)OC1(C)CC(C)C(=O)C(C(O)CC2CC(=O)NC(=O)C2)C1 (configuration not stated) | 0.239 µM and 0.0533 µM |  |
| COc1cccc2c1C(=O)c1c(O)c3c(c(O)c1C2=O)CC(O)(C(C)=O)CC3OC1OC(COC(C)=O)C(OC(C)=O)C(OC(C)=O)C1OC(C)=O (configuration not stated) | > 100 µM |  |
| CCCc1nn(C)c(CCC(=O)N(Cc2ccccc2)Cc2ccccc2)c1CC | > 100 µM |  |
| COc1c(N2CCCCC2)c2c(=O)c3ccccc3oc2c2c3ccccc3n(C)c12 | > 100 µM |  |
| Cc1ccc(/C=C2\CCS(=O)(=O)c3ccccc3C2=O)cc1 | 34 µM |  |
| CN(C)C1(N(C)C)Oc2c(c(=O)n(C)c(=O)n2C)C(c2ccc(F)cc2)C1(F)F (configuration not stated) | > 100 µM |  |
| CC1(C)C2=CCCC(=O)[C@@]2(C)CC[C@@H]1O | > 100 µM |  |
| CCOC(=O)CN1C(=O)c2c(NC(=O)C(=O)O)cccc2S1(=O)=O | > 100 µM |  |
| CC(=O)CCn1[nH]c(=O)c(Cl)c(Cl)c1=O | > 100 µM |  |
| CN(CCO)c1nc(=O)c2c(n1C1OC(CO)C(O)C(O)C1O)CCCC2 (configuration not stated) | > 100 µM |  |
| Fc1ccc(-c2c(-c3ccncc3)[nH]c3cccnc23)cc1 | > 25 µM | 11.3 |
| CC1=NC(=O)CNN1C1=NNC2(C(=O)N1)c1ccccc1-c1ccccc12 | > 100 µM |  |
